# Reference: the supplement of paper PMC8728848
# The list shows a part of the results.
# Key:
# Assay in all cases: glycan array binding signal (z-score within array); higher = stronger binding
# Conditions in all cases: glycan notation: IUPAC condensed, linker removed
# [1] = biological target: Gal(b1-4)GlcNAc(b1-3)[GlcNAc(b1-6)]Gal(b1-4)GlcNAc
# How it was run: (§1)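 The binding signal is a Z-score computed within each array. Data were drawn from 3228 arrays in the Consortium for Functional Glycomics database, restricted to those with a known protein sequence. Scores were averaged over arrays of the same protein sequence at different concentrations or buffers, and over linkers, and negative values can be taken as non-binding.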
# [2] = biological target: Gal(b1-4)GlcNAc(b1-6)Gal(b1-4)GlcNAc
# How it was run: as §1
# [3] = biological target: Gal(b1-4)GlcNAc(b1-6)Gal(b1-4)GlcNAc(b1-6)GalNAc
# How it was run: as §1
# [4] = biological target: Gal(b1-4)GlcNAc(b1-6)GalNAc
# How it was run: as §1
# [5] = biological target: Gal(b1-4)GlcNAc(b1-6)[Gal(b1-3)]GalNAc
# How it was run: as §1
# Gal3S(b1-3)GalNAc = biological target: Gal3S(b1-3)GalNAc
# How it was run: as §1
# Gal3S(b1-3)GlcNAc = biological target: Gal3S(b1-3)GlcNAc
# How it was run: as §1
# [6] = biological target: Gal3S(b1-3)[Fuc(a1-4)]GlcNAc
# How it was run: as §1
# Gal3S(b1-4)Glc = biological target: Gal3S(b1-4)Glc
# How it was run: as §1
# Gal3S(b1-4)Glc6S = biological target: Gal3S(b1-4)Glc6S
# How it was run: as §1
# Gal3S(b1-4)GlcNAc = biological target: Gal3S(b1-4)GlcNAc
# How it was run: as §1
# Gal3S(b1-4)GlcNAc6S = biological target: Gal3S(b1-4)GlcNAc6S
# How it was run: as §1
# [7] = biological target: Gal3S(b1-4)[Fuc(a1-3)]Glc
# How it was run: as §1
# Gal3S4S(b1-4)GlcNAc = biological target: Gal3S4S(b1-4)GlcNAc
# How it was run: as §1
# Gal3S6S(b1-4)GlcNAc = biological target: Gal3S6S(b1-4)GlcNAc
# How it was run: as §1
# Gal3S6S(b1-4)GlcNAc6S = biological target: Gal3S6S(b1-4)GlcNAc6S
# How it was run: as §1
# Gal4S(b1-4)GlcNAc = biological target: Gal4S(b1-4)GlcNAc
# How it was run: as §1
# Gal4S6S(b1-4)GlcNAc = biological target: Gal4S6S(b1-4)GlcNAc
# How it was run: as §1
# Gal6S(b1-4)Glc = biological target: Gal6S(b1-4)Glc
# How it was run: as §1
# Gal6S(b1-4)Glc6S = biological target: Gal6S(b1-4)Glc6S
# How it was run: as §1
# Gal6S(b1-4)GlcNAc = biological target: Gal6S(b1-4)GlcNAc
# How it was run: as §1
# Gal6S(b1-4)GlcNAc6S = biological target: Gal6S(b1-4)GlcNAc6S
# How it was run: as §1
# GalNAc(a1-3)Gal = biological target: GalNAc(a1-3)Gal
# How it was run: as §1
# GalNAc(a1-3)GalNAc = biological target: GalNAc(a1-3)GalNAc
# How it was run: as §1
# GalNAc(b1-3)Gal = biological target: GalNAc(b1-3)Gal
# How it was run: as §1
# [8] = biological target: GalNAc(b1-3)Gal(a1-4)Gal(b1-4)GlcNAc
# How it was run: as §1
# [9] = biological target: GalNAc(b1-3)Gal(a1-4)Gal(b1-4)GlcNAc(b1-3)Gal(b1-4)Glc
# How it was run: as §1
# GalNAc(b1-3)GalNAc = biological target: GalNAc(b1-3)GalNAc
# How it was run: as §1
# GalNAc(b1-4)GlcNAc = biological target: GalNAc(b1-4)GlcNAc
# How it was run: as §1
# [10] = biological target: GalNAc(b1-4)GlcNAc(b1-2)Man(a1-3)[GalNAc(b1-4)GlcNAc(b1-2)Man(a1-6)]Man(b1-4)GlcNAc(b1-4)GlcNAc
# How it was run: as §1
# Glc(a1-4)Glc = biological target: Glc(a1-4)Glc
# How it was run: as §1
# Glc(a1-6)Glc(a1-6)Glc = biological target: Glc(a1-6)Glc(a1-6)Glc
# How it was run: as §1
# Glc(b1-4)Glc = biological target: Glc(b1-4)Glc
# How it was run: as §1
# Glc(b1-6)Glc = biological target: Glc(b1-6)Glc
# How it was run: as §1
# GlcA(b1-3)Gal = biological target: GlcA(b1-3)Gal
# How it was run: as §1
# GlcA(b1-3)GlcNAc = biological target: GlcA(b1-3)GlcNAc
# How it was run: as §1
# GlcA(b1-6)Gal = biological target: GlcA(b1-6)Gal
# How it was run: as §1
binder,measurement,setting,value
"Spy0252 (Streptococcus pyogenes), Q9A1I9_STRP1 (protein) MNMKKLASLAMLGASVLGLAACGGKSQKEAGASKSDTAKTEITWWAFPVFTQEKAEDGVGTYEKKLIAAFEKANPEIKVKLETIDFTSGPEKITTAIEAGTAPDVLFDAPGRIIQYGKNGKLADLNDLFTEEFTKDVNNDKLIQASKAGDTAYMYPISSAPFYMALNKKMLKDAGVLDLVKEGWTTDDFEKVLKALKDKGYNPGSFFANGQGGDQGPRAFFANLYSSHITDDKVTKYTTDDANSIKAMTKISNWIKDGLMMNGSQYDGSADIQNFANGQTSFTILWAPAQPGIQAKLLEASKVDYLEIPFPSDDGKPELEYLVNGFAVFNNKDEQKVAASKTFIQFIADDKEWGPKNVVRTGAFPVRTSYGDLYKDKRMEKIAEWTKFYSPYYNTIDGFAEMRTLWFPMVQAVSNGDEKPEDALKAFTEKANKTIKKTQ",glycan array binding signal (z-score),[1],-0.284
same,glycan array binding signal (z-score),[2],-0.205
same,glycan array binding signal (z-score),[3],-0.231
same,glycan array binding signal (z-score),[4],-0.225
same,glycan array binding signal (z-score),[5],-0.2
same,glycan array binding signal (z-score),Gal3S(b1-3)GalNAc,-0.252
same,glycan array binding signal (z-score),Gal3S(b1-3)GlcNAc,-0.263
same,glycan array binding signal (z-score),[6],-0.259
same,glycan array binding signal (z-score),Gal3S(b1-4)Glc,0.647
same,glycan array binding signal (z-score),Gal3S(b1-4)Glc6S,0.257
same,glycan array binding signal (z-score),Gal3S(b1-4)GlcNAc,-0.258
same,glycan array binding signal (z-score),Gal3S(b1-4)GlcNAc6S,-0.261
same,glycan array binding signal (z-score),[7],-0.254
same,glycan array binding signal (z-score),Gal3S4S(b1-4)GlcNAc,-0.245
same,glycan array binding signal (z-score),Gal3S6S(b1-4)GlcNAc,-0.149
same,glycan array binding signal (z-score),Gal3S6S(b1-4)GlcNAc6S,-0.264
same,glycan array binding signal (z-score),Gal4S(b1-4)GlcNAc,-0.249
same,glycan array binding signal (z-score),Gal4S6S(b1-4)GlcNAc,-0.152
same,glycan array binding signal (z-score),Gal6S(b1-4)Glc,-0.255
same,glycan array binding signal (z-score),Gal6S(b1-4)Glc6S,-0.262
same,glycan array binding signal (z-score),Gal6S(b1-4)GlcNAc,-0.229
same,glycan array binding signal (z-score),Gal6S(b1-4)GlcNAc6S,-0.268
same,glycan array binding signal (z-score),GalNAc(a1-3)Gal,-0.212
same,glycan array binding signal (z-score),GalNAc(a1-3)GalNAc,-0.201
same,glycan array binding signal (z-score),GalNAc(b1-3)Gal,-0.15
same,glycan array binding signal (z-score),[8],2.25
same,glycan array binding signal (z-score),[9],5.38
same,glycan array binding signal (z-score),GalNAc(b1-3)GalNAc,-0.264
same,glycan array binding signal (z-score),GalNAc(b1-4)GlcNAc,-0.255
same,glycan array binding signal (z-score),[10],-0.234
same,glycan array binding signal (z-score),Glc(a1-4)Glc,0.228
same,glycan array binding signal (z-score),Glc(a1-6)Glc(a1-6)Glc,-0.226
same,glycan array binding signal (z-score),Glc(b1-4)Glc,0.186
same,glycan array binding signal (z-score),Glc(b1-6)Glc,-0.246
same,glycan array binding signal (z-score),GlcA(b1-3)Gal,-0.259
same,glycan array binding signal (z-score),GlcA(b1-3)GlcNAc,-0.07
same,glycan array binding signal (z-score),GlcA(b1-6)Gal,-0.146
